Measured values reported in PMC4336329 (PLoS ONE, 2015).
Among all 310,000 compounds or so, about 2,200 (0.71%) showed an effect of 50% or more. The effect is printed as a negative number. The list shows a part of the results.

Each compound was assayed against human ether-à-go-go-related gene (hERG) potassium channel (human, UniProt Q12809) (assay: primary screen, population patch clamp on CHO cells stably expressing hERG).
Sequence of human ether-à-go-go-related gene (hERG) potassium channel (Q12809 whole entry, looked up): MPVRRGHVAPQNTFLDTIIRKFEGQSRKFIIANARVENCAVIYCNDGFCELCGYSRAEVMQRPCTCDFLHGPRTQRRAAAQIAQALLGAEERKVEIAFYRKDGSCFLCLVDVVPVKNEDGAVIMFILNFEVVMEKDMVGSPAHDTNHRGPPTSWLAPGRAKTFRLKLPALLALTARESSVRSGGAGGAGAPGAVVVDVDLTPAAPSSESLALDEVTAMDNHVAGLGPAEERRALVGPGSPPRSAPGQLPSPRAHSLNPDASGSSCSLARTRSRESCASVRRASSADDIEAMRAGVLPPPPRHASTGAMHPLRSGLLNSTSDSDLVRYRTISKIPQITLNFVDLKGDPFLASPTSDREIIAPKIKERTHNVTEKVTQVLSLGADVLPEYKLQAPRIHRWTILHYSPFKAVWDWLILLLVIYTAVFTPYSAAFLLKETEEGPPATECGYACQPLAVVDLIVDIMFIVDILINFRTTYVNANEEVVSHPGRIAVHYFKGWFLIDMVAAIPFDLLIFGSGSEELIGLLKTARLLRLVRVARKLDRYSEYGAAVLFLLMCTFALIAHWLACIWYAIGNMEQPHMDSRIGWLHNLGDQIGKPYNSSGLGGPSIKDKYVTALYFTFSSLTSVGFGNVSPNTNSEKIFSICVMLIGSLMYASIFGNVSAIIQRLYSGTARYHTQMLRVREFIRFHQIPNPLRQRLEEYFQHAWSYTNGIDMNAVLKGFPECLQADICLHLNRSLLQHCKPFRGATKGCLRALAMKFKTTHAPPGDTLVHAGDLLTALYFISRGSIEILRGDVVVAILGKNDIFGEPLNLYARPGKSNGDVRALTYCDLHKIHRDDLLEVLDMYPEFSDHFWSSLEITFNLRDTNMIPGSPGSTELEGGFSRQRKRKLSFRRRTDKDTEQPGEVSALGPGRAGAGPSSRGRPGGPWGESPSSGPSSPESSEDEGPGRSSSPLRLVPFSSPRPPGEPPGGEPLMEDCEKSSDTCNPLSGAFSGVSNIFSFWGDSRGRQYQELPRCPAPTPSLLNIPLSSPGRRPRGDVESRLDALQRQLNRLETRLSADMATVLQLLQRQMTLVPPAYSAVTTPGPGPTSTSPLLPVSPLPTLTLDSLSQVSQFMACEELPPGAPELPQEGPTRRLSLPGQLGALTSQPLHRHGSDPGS

Row | Structure (SMILES) | hERG current change (%, negative = inhibition) at 1uM
1 | COc1ccc(C2CC(=O)n3nc(C45CC6CC(CC(C6)C4)C5)nc3S2)cc1OC (stereo not shown) | 14.3%
2 | CCNc1nc(Oc2ccc(C#N)cc2)cc(C(F)(F)F)n1 | 8.21%
3 | O=c1oc2ccccc2c(NC2CCCCC2)c1NS(=O)(=O)c1ccc(Br)cc1 | 8.54%
4 | Cc1ccccc1C(=O)N/N=C/c1ccc(OCC(=O)N2CCCCC2)cc1 | 10.3%
5 | CC1(C)CC(n2[nH]c(=O)c3c2NC(=O)CSC3c2ccccc2)CCO1 (stereo not shown) | 10.5%
6 | N#Cc1nc(-c2ccco2)oc1N1CCC(Cc2ccccc2)CC1 | 8.96%
7 | COc1ccc(C(=O)NCc2nnc(SCC(=O)NC3CCCCC3)o2)cc1 | 11.7%
8 | Cc1cc(C)cc(C(=O)NC(CC(N)=O)c2ccc(N3CCC(Cc4ccccc4)CC3)c([N+](=O)[O-])c2)c1 (stereo not shown) | 7.62%
9 | COC(=O)C1=C(C)NC(=O)/C1=C\N(C)C | 12.3%
10 | Cc1nn(C)c(C(=O)N/N=C/c2cc3c(cc2Br)OCO3)c1Br | 7.14%
11 | CC1=C(C(=O)OCC2CCCO2)C(c2ccccc2Cl)NC(=O)N1 (stereo not shown) | 14.9%
12 | Cn1c(=O)n(Cc2ccc(Cl)cc2)c(=O)c2c1nc1n2CCN1Cc1ccco1 | 8.92%
13 | CNC(=O)c1[nH]cnc1C(=O)Nc1ccc(C)cc1 | 13.2%
14 | O=C(Nc1ccc(N2CCCCC2)c(Cl)c1)c1ccc2c(c1)OCCO2 | 10.7%
15 | O=C(CNC(=O)c1ccco1)OCc1ccc(C(=O)c2ccccc2)cc1 | 2.49%
16 | CC(CCCC(C)(C)O)NC(=O)c1ccc2oc(CCc3ccccc3)nc2c1 (stereo not shown) | 12.2%
17 | Cc1ccc2c(c1)C1(SCCS1)C(=O)N2 | 13.5%
18 | COCCn1c(SC(C)C(=O)NC2CC2)nnc1-c1cccc(C)c1 (stereo not shown) | 3.11%
19 | Cc1occc1C(=O)N1CCCC(Nc2ccc(F)c(F)c2)C1 (stereo not shown) | 2.94%
20 | O=C(COc1cccc(C(F)(F)F)c1)N1CCN(c2ccc(O)cc2)CC1 | 0.781%
21 | Nc1nc(N)c2nc(CNc3ccc(C(=O)NC(CCC(=O)O)C(=O)O)cc3)cnc2n1 (stereo not shown) | 8.4%
22 | CCN(CC(=O)Nc1ccc(NC(C)=O)cc1)C(=O)c1n[nH]c(=O)c2ccccc12 | -41.2%

Row | Structure (SMILES) | hERG current change (%, negative = inhibition) at 1uM
23 | O=C(COc1ccccc1Br)NCc1ccccn1 | 2.65%
24 | CCOC(=O)CNC(=O)C12CC3CC(CC(C3)C1)C2 | 20.8%
25 | Cc1ccc(NC(=O)Cn2nnc(C(=O)NCCc3ccccc3)c2N)c(C)c1 | 12.2%
26 | COc1ccc(NC(C)=O)cc1S(=O)(=O)Nc1cccc(S(=O)(=O)NC2=NCCC2)c1 | 8.91%
27 | CCOc1ccc(-n2c(N)c(C(=O)NCC3CCCO3)sc2=S)cc1 (stereo not shown) | 5.33%
28 | Cc1ccc(NC2=CC(=O)CC(C)(C)C2)c(N)c1 | 0.634%
29 | CC1CC(C)CN(C(=O)c2ccc3c(c2)OCCO3)C1 (stereo not shown) | 1.96%
30 | Cc1ccc(S(=O)(=O)N(C)C)cc1NC(=O)CCNC(=O)c1ccccc1Cl | 14.3%
31 | CCCCn1c(N)c(N(CC(C)C)C(=O)c2oc3ccc(OC)cc3c2C)c(=O)[nH]c1=O | 3.18%
32 | COC(=O)c1ccc(COc2ccc(-c3nnn(CC(N)=O)n3)cc2)cc1 | 11.9%
33 | CC(CN(C)Cc1ccccc1)OC(=O)c1ccc(F)cc1.Cl (stereo not shown) | 3.94%
34 | COc1ccc(NC(=O)CN(C)S(=O)(=O)c2ccc(Br)s2)cc1 | 15.7%
35 | CCCCCCCNC(=O)COc1ccc2c(c1)C(=O)CC(C)(C)O2 | -1.67%
36 | Cc1ccc2c(c1)c1c3n2CCCNC3CCC1 (stereo not shown) | -15.3%
37 | COc1ccc(C(=O)NCC(=O)N/N=C/c2ccc([N+](=O)[O-])s2)cc1OC | -9.14%
38 | Cc1cccc(-n2ncc3c(N4CCCC4)ncnc32)c1 | 17.7%
39 | O=C(Cc1ccccc1)N1CCN(CC2CC3C=CC2C3)CC1.O=C(O)C(=O)O (stereo not shown) | 3.48%
40 | Cc1cc(/C=N/NC(=O)CC2(C)OCCO2)c(C)n1-c1ccc(Cl)c(Cl)c1 | 15%
41 | COc1ccc(S(=O)(=O)N2CC(C)N(C(=O)N(C)C)C2C)cc1 (stereo not shown) | 16%
42 | COc1cc(-c2c(C#N)c(=O)[nH]c3c2c(C)nn3-c2ccccc2)ccc1O | 17.3%
43 | CCOc1cccc(NC(=O)Cn2nc(-c3ccc4c(c3)OCCO4)ccc2=O)c1 | 13.3%
